PubChem BioAssay AID485344 (National Center for Advancing Translational Sciences (NCATS), 2010)
In all, about 340,000 compounds went through this assay and about 6,900 (2%) were called active. Cut-off read from the data, not from the text of the source: active = inhibition above about 30%; inactive = below that, where a call was filed. The list shows a part of the results, in another mix than the full data. The source gives no active or inactive call for entries shown without one.

Target: D(2) dopamine receptor (Homo sapiens) (UniProt P14416)
Assay: HTS Assay for Allosteric Antagonists of the Human D2 Dopamine Receptor: Primary Screen for Antagonists; note: 0% is about no effect
Conditions: HEK293 TREx D2 cells, calcium flux, dopamine EC80; at 10 µM; stronger effect = higher value
Outline: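 Read-out: kinetic calcium fluorescence (1 cycle/s) in inducible HEK293 T-REx D2 cells after an EC80 dopamine addition that followed 180 s compound preincubation. Loss of the dopamine response indicates antagonism.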

Chain of UniProt P14416 (P14416 whole entry, looked up): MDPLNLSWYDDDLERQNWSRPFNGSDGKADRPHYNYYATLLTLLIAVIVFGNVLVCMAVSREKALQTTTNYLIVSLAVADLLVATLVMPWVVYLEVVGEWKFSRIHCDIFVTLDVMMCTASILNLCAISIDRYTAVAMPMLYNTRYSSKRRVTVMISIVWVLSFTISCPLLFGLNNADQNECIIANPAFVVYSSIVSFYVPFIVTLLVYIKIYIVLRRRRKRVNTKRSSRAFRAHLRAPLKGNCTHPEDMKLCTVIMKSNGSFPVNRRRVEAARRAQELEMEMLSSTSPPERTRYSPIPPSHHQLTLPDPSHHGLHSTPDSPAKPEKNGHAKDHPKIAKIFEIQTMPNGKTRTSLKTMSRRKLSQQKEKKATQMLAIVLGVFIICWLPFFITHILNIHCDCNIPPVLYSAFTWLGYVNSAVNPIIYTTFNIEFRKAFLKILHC

SMILES | inhibition
CCOc1ccccc1CNC(=O)c1cccn1-c1nnc(N2CCCC2)s1 | -5.14%
COc1ccc(S(=O)(=O)N(CC(=O)Nc2cccnc2)c2ccc(Cl)cc2)cc1 | -9.19%
Clc1cccc(-n2ncc3c(NCCCn4ccnc4)ncnc32)c1 | -1.59%
Cc1cccc(N2CCN(C(=O)Cn3nc(Cc4cccnc4)c4ccccc4c3=O)CC2)c1C | -9.28%
COc1ccc(NC(=O)Cn2c(=O)ccc3cc(S(=O)(=O)N4CCCC4)ccc32)cc1Cl | -3.79%
CC(C)(C)c1ccc(-c2nc(SCC(=O)Nc3ccccc3F)n3[nH]c(=O)cc3n2)cc1 | -21.3%
CCc1ccc2oc(C(=O)Nc3ccccc3C(=O)OC)cc(=O)c2c1 | 2.8%
Cc1ccccc1NC(=O)c1c(C)oc2ccc(O)c(CN3CCN(C)CC3)c12 | 4.91%
COc1ccc(-c2onc(C)c2C)cc1S(=O)(=O)NCC1CCN(Cc2cccc(F)c2)CC1 | 18.3%
CC1=C(c2ccc(Cl)cc2)S(=O)(=O)N=C1N1CCC(C(=O)NCc2ccccc2F)CC1 | 1.08%
COc1ccc(CCNc2nc3c(-c4cccc(C)c4)nnn3c3ccccc23)cc1OC | -19.9%
COC1=C/C(=C/c2c(O)c(C#N)c3ccccn23)C=CC1=O | active: 33.1%
Cc1ccc(-n2c(=O)c3c(c4cc(C)ccc4n3C)n(CC(=O)NCc3ccccc3)c2=O)cc1 | 3.59%
CCN1CCc2nc3sc(C(=O)c4ccc(F)cc4)c(N)c3cc2C1 | 19%
COc1ccc(NC(=O)COC(=O)CCCOc2ccc(Cl)cc2Cl)cc1 | active: 39.7%
COc1ccccc1NC(=O)CSc1nc(-c2ccccc2F)nc2cc(=O)[nH]n12 | -2.65%
COc1ccc(NC(=O)c2c(NCc3cccc(OC)c3)sc3c2CCCC3)cc1 | 14.7%
Cc1ccc2occ(CC(=O)N(Cc3ccc(C(C)C)cc3)C3CCS(=O)(=O)C3)c2c1 (stereo not given) | -14.7%
O=C(CCC1N=C2c3ccccc3N=C(SCc3ccccc3F)N2C1=O)NCc1ccc(F)cc1 (stereo not given) | -12.8%
CC(C)(C)c1ccc(C(=O)N2CCC(c3nc4ccccc4o3)CC2)cc1 | -8.15%
Cc1ccc(NC(=O)Cn2c(=O)n(CCC(=O)NCc3ccccc3Cl)c(=O)c3ccccc32)cc1 | 8.64%
Cc1ccc(-c2nnc3ccccc3c2C(=O)Nc2ccccc2F)cc1 | -5.25%
CCOc1ccccc1C(=O)N(Cc1ccccc1F)C1CCS(=O)(=O)C1 (stereo not given) | 10.8%
COc1cc(NC(=O)C(CCSC)NS(=O)(=O)c2ccc3c(c2)oc(=O)n3C)cc(OC)c1 (stereo not given) | -4.1%

SMILES | inhibition
COc1ccc(Cl)cc1NC(=O)CSc1cn(CC(=O)N2CCCCCC2)c2ccccc12 | 0.459%
CCNc1nc(NC(C)(C)C)nc(Oc2ccc(=O)n(C)n2)n1 | -1.15%
O=C(NCCc1ccccc1)C(=O)NCC(c1ccc2c(c1)OCO2)N1CCOCC1 (stereo not given) | 9.79%
COc1cc(NC(=O)CC(C)n2nc(C)cc2C)cc(OC)c1 (stereo not given) | 16.6%
CC1CCN(S(=O)(=O)c2nnc(NC(=O)c3cccc(Br)c3)s2)CC1 | 5.64%
CCS(=O)(=O)N1CCc2cc(C(=O)NCCc3ccc(OC)cc3)ccc21 | 25.1%
COc1ccccc1C(=O)NCC(=O)N/N=C(\C)Cc1ccccc1 | active: 30%
CCc1ccccc1NC(=O)N1CCN(C(=O)c2nsc3ccccc23)CC1 | 9.58%
CC(=O)N1CCCC1c1nc2ccccc2n1Cc1ccccc1C (stereo not given) | -16.1%
CCc1ccc(NC(=O)CC2C(=O)N(c3cccc(C)c3)C(=O)N2Cc2ccco2)cc1 (stereo not given) | 1.01%
CC1CCN(S(=O)(=O)c2ccc3c(ccn3CCC(=O)NCc3ccc(N(C)C)cc3)c2)CC1 | 1.55%
COc1cccc2cc(C(=O)NCCc3c(C)[nH]c4ccc(F)cc34)c(=O)oc12 | 13.5%
COc1ccc(NC(=O)CCc2c(C)nc3nc(CNC(=O)OC(C)(C)C)nn3c2C)cc1OC | 2.08%
COc1ccc(CC2C(=O)Nc3ccc(Br)cc32)cc1OC (stereo not given) | 8.47%
O=C(Nc1ccc(F)c(Cl)c1)C1CCCN(c2cnccn2)C1 (stereo not given) | -3.69%
Cc1ccccc1CN1CCC(CNc2ncnc3onc(-c4ccc(F)cc4)c23)CC1 | 4.04%
Cc1ccc([N+](=O)[O-])c(OCCN2CCNCC2)c1 | active: 71.5%
CCOC(=O)c1c(C)c(-c2ccccc2)n(CC(=O)Nc2cc(C)ccc2OC)c1C | -14.1%
COc1cc(NC(=O)NC(C)c2c(-n3cccc3)sc3c2CCCC3)cc(OC)c1OC (stereo not given) | 20%
CC(=O)Nc1ccc2nc(-c3cc(C)ccc3C)[nH]c2c1 | 20.1%
CCc1cccc(-n2nnc(-c3nsc(NC(=O)c4cccs4)n3)c2C)c1 | 12.9%
Cc1ccc(OCc2ccc(-c3nc(C#N)c(NCc4cccnc4)o3)o2)cc1 | -7.88%
CCCCN(CC)CCNC(=O)c1cn(C)c(=O)c2c1c1ccccc1n2C | -23.3%
CCN1CCC[C@H]1CNC(=O)c1cc(S(N)(=O)=O)ccc1OC | active: 87.4%

SMILES | inhibition
NC1=NC[C@H](Cc2ccc(O)cc2)N1CCc1cccc(F)c1 | active: 38.9%
Cc1ccc(CN2C(=O)C3(c4ccccc42)N(c2cccc(F)c2)C(=O)CS3(=O)=O)cc1 (stereo not given) | 2.55%
CCOc1ccc(CNC(=O)Cn2cc3c(n2)-c2c(oc(C(=O)N4CCOCC4)c2C)CC3)cc1 | -1.56%
Cc1ccc(Cl)cc1NC(=O)Cn1c(=O)oc2cc(S(=O)(=O)N3CCCC3)ccc21 | -3.34%
Cc1ccc2c(CC(=O)Nc3ccc(S(=O)(=O)N4CCCCC4)cc3)coc2c1 | -8.54%
CCOc1ccccc1N(C)C(=O)C1CCCN(c2ncnc3c2nc2n3CCCCC2)C1 (stereo not given) | 12.9%
Cc1ccc(NC(=O)c2cc(-c3ccc(Br)s3)nc3ccccc23)cc1F | -1.95%
Cc1cc(C)c2c(=O)nc(SCc3ccccc3C)n(C3CC3)c2n1 | 14.9%
COCCn1c(=NC(=O)c2ccc3c(c2)OCCO3)sc2cc(C(=O)OC)ccc21 | -8.03%
COc1ccc(C(=O)OC2=C(C(=O)c3ccccc3)N(C)S(=O)(=O)c3ccccc32)cc1OC | 27.3%
CCNC(=O)c1c(NC(=O)Cc2coc3cc(C)cc(C)c23)sc2c1CCCC2 | 2.88%
COc1ccccc1N1CCN(S(=O)(=O)c2c(C)sc3ncn(CC(=O)N(C)c4ccc(Cl)cc4)c(=O)c23)CC1 | 1.11%
Cc1c(C(=O)N2CCC(c3nc4ccccc4s3)CC2)oc2ccc(Cl)cc12 | -12.7%
Oc1c(C(c2ccccc2F)N2CCN(Cc3ccccc3)CC2)sc2nc(-c3ccco3)nn12 (stereo not given) | -9.99%
COC(=O)NCC(c1cccnc1)N1CCN(c2ccc(F)cc2)CC1 (stereo not given) | -18.1%
Cc1ccc(-n2ncc3c(NCCC4=CCCCC4)ncnc32)cc1 | 3.71%
Cc1ccc(Cl)cc1NC(=O)C(C)n1nc(-c2ccccc2)ccc1=O (stereo not given) | -3.77%
CCc1ccccc1NC(=O)CCNS(=O)(=O)c1ccc2c(c1)CCN2C(=O)C1CC1 | -1.73%
Cn1c(=O)c2c(nc(SCC(=O)Nc3ccccc3F)n2Cc2ccc(Cl)cc2)n(C)c1=O | 18%
COc1ccc(C(=O)Nc2nnc(SCc3cc(=O)c4cc(C)cc(C)c4[nH]3)s2)cc1 | -21.4%
O=C(NCCN1CCOCC1)c1cc2sccc2n1Cc1ccc(F)cc1 | active: 37.8%
Cc1ccc(CNC(=O)CCCn2c(=O)c3ccccc3n(CC(=O)Nc3ccc(C)c(C)c3)c2=O)cc1 | -3.62%
CCOc1ccc(CCNC(=O)CCCn2c(=O)c3cccn3c3ccccc32)cc1 | -16.4%
CCCn1c(CCC(=O)Nc2ccc(OCC)cc2)nc2cccnc21 | 5.69%

SMILES | inhibition
Cc1ccc(-n2c(=O)c3c(C)c(C)sc3n(CC(=O)NCc3ccccc3)c2=O)cc1C | 7.71%
CC1CCc2c(sc(NC(=O)C3c4ccccc4Oc4ccccc43)c2C#N)C1 (stereo not given) | 5.55%
Cc1cc(C)c(C(=O)c2ccc(C(=O)NC(C)(C)C)cc2)c(C)c1 | active: 40.1%
CCOC(=O)c1c(C)oc2nc(C)nc(NCc3ccc(F)cc3)c12 | 4.72%
COc1ccc(C2=CC(c3ccccc3Cl)n3nc(-c4ccc(Cl)cc4)nc3N2)cc1 (stereo not given) | -20.3%
Cc1ccc(Cl)cc1N1CCN(C(=O)Cn2cnc3sc(C)c(S(=O)(=O)N4CCC(C)CC4)c3c2=O)CC1 | 7.26%
COC(=O)c1scc(-c2ccc(C)cc2)c1S(=O)(=O)N1CCN(c2ccc(C(C)=O)cc2)CC1 | 9.94%
Cc1nc2nc(NCc3ccc(Cl)cc3)[nH]n2c(=O)c1Cc1ccccc1 | -4.18%
Cc1nc2ccn(Cc3cccs3)c(=O)c2cc1C(=O)N1CCN(c2ccccc2F)CC1 | -9.8%
O=C(NCc1ccccc1CN1CCCC1)c1cccc(S(=O)(=O)Nc2ccc(F)cc2)c1 | active: 61.7%
O=C1C(=O)N(C2CCN(C(=O)c3ccccc3Cl)CC2)CCN1Cc1ccc(F)cc1 | 3.1%
CC1CCN(S(=O)(=O)c2ccc3c(c2)N(CC(=O)NCCc2ccccc2)C(=O)CO3)CC1 | 5.84%
COc1cccc(NC(=O)c2ccc3c(c2)CCN3S(C)(=O)=O)c1 | -25.2%
Cc1ccc(CNC(=O)c2ccc(CSCc3cccc(C)c3)o2)cc1 | -1.99%
COc1cccc(-c2nnc(-c3ccccc3NC(=O)c3ccc(F)cc3F)o2)c1 | 6.48%
Cc1ccc(C)c(OCCn2c(CCNC(=O)C3CCCCC3)nc3ccccc32)c1 | -8.94%
Cc1ccc(N2CC(C(=O)N3CCC(c4nc5ccccc5[nH]4)CC3)CC2=O)cc1C (stereo not given) | active: 33.6%
CC1(c2ccccc2)CC(C)(C)N(C(=O)c2cccc(Cl)c2)c2ccccc21 (stereo not given) | -4.05%
COc1ccccc1NC(=O)c1ccc(CN2C(=O)C(C)=C(c3ccc(C)c(C)c3)S2(=O)=O)cc1 | 6.47%
Cc1noc(-c2ccc(NC(C)c3ccccc3)c([N+](=O)[O-])c2)n1 (stereo not given) | 11.2%
CCC(=O)N1CCc2cc(Br)cc(S(=O)(=O)N3CCN(c4ccccc4OC)CC3)c21 | -7.06%
CCOC(=O)CC(=O)CSc1nc2ccsc2c(=O)n1Cc1ccccc1 | 8.84%
CN(C)S(=O)(=O)n1cnc([C@@H]2[C@@H]3C(=O)OC[C@@H]3C[C@]23N=CN(Cc2ccccc2)C3=O)c1 | active: 30.9%
